Experimental data reported in the RNAGym collection of RNA variant scans (doi:10.1101/gad.245936.114).
Variants at the floor of the assay are shown more often than the library holds them.

B1: tRNA (parent)
chain: CUCUCGGUAGCCAAGUUGGUUUAAGGCGCAAGACUUUAAUUUAUCACUACGAAAUCUUGAGAUCGGGCGUUCGACUCGCCCCCGGGAGAUUUUUUCCUCGAGCAA

Variants of: B1
Experiment: nonsense suppression (GFP-seq) (ratio to wild type); higher = more function; SUP4oc tRNA, yeast GFP reporter sort-seq
Procedure, shortened: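 Each variant's nonsense suppression (GFPSEQ) is a cell-share-weighted bin median GFP/RFP relative to the unmutated parent tRNA. Yeast with genome-integrated tRNA variants from a ~3% random-mutation library, a galactose-driven GFP ochre reporter and RFP were grown in raffinose/galactose medium with 80 mg/L adenine, then sorted into GFP/RFP bins for Illumina sequencing. Variants needed ≥100 reads and ≥30 cells.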

Variant | nonsense suppression
G7C C68A U70A C72G C80G | ≤ 0.026
G7C C72G | ≤ 0.026
G7C C77G | ≤ 0.026
G7C C77U G78A | ≤ 0.026
G7C G10U A62U | ≤ 0.026
G7C G10U C27A C82G C83U | ≤ 0.026
G7C G10U G18A | ≤ 0.026
G7C G10U U20G G25U G32U | ≤ 0.026
G7C G15C | ≤ 0.026
G7C G15C C29A U63C | ≤ 0.026
G7C G15C G26C G78C G88C | ≤ 0.026
G7C G15C G67A | ≤ 0.026
G7C G15C U71C | ≤ 0.026
G7C G15U C27A A60C C80G A89G | ≤ 0.026
G7C G15U G32A C82A | ≤ 0.026
G7C G15U G61C | ≤ 0.026
G7C G18A G65C G86A | ≤ 0.026
G7C G18C | ≤ 0.026
G7C G18C G61C | ≤ 0.026
G7C G18C G73A | ≤ 0.026
G7C G18C U20G G28U U71A | ≤ 0.026
G7C G19A | ≤ 0.026
G7C G19C G66U G69C | ≤ 0.026
G7C G19U U20A U58G A89G | ≤ 0.026

Variant | nonsense suppression
G7C G26A A89G | ≤ 0.026
G7C G26A C80A | ≤ 0.026
G7C G28A | ≤ 0.026
G7C G59C G86C | ≤ 0.026
G7C G61U | ≤ 0.026
G7C G65A | ≤ 0.026
G7C G67U C80U | ≤ 0.026
G7C G73C C82G | ≤ 0.026
G7C G73U | ≤ 0.026
G7C G86C A87C | ≤ 0.026
G7C U8C G32C G66C C80A | ≤ 0.026
G7C U8C G61A G65A C82A G84A | ≤ 0.026
G7C U16A U58C A60C C64A | ≤ 0.026
G7C U16C C27G | ≤ 0.026
G7C U17A A23C | ≤ 0.026
G7C U17A G32U C80G | ≤ 0.026
G7C U17A U55G U63C G88A | ≤ 0.026
G7C U17C C27U C64G | ≤ 0.026
G7C U20G C68A | ≤ 0.026
G7C U20G G59U | ≤ 0.026
G7C U21A G59C G84U | ≤ 0.026
G7C U35A | ≤ 0.026
G7C U35C | ≤ 0.026
G7C U55C | 0.0823

Variant | nonsense suppression
G7C U58G U63C | ≤ 0.026
G7C U70G G84U | ≤ 0.026
G7C U71G C79U C83A | ≤ 0.026
G7C U76A | ≤ 0.026
G7C U76C A89C | ≤ 0.026
G7U A9G G15U A23U C34G G59U G67A C68U G85U | ≤ 0.026
G7U A9G U35A G78U | ≤ 0.026
G7U A9U | ≤ 0.026
G7U A9U A31U | ≤ 0.026
G7U A9U A87C | ≤ 0.026
G7U A9U C80G | ≤ 0.026
G7U A13G C80A | ≤ 0.026
G7U A13U | ≤ 0.026
G7U A13U G19A G66U | ≤ 0.026
G7U A13U G32U | ≤ 0.026
G7U A14G C75A | ≤ 0.026
G7U A14G G15U G18U C34A A60U C75U | ≤ 0.026
G7U A14G U21C C29G C79A | ≤ 0.026
G7U A24C G69A C72U | ≤ 0.026
G7U A24G G26U | ≤ 0.026
G7U A24U G66C | ≤ 0.026
G7U A30U G59U | ≤ 0.026
G7U A31C | ≤ 0.026
G7U A31C G88A | ≤ 0.026

Variant | nonsense suppression
G7U A33G G84A | ≤ 0.026
G7U A33G U35G C56G G69U C79A | ≤ 0.026
G7U A54U | ≤ 0.026
G7U A60G C81A A89G | ≤ 0.026
G7U A62C | ≤ 0.026
G7U A62U | ≤ 0.026
G7U A74U G85A | ≤ 0.026
G7U A87C | ≤ 0.026
G7U C11G | ≤ 0.026
G7U C11G A30G A62C G67A | ≤ 0.026
G7U C12A G19U U35G G69C G84A | ≤ 0.026
G7U C12U C64G C72U | ≤ 0.026
G7U C12U G15U U21A | ≤ 0.026
G7U C12U G28C C75U G86U | ≤ 0.026
G7U C12U G85U | ≤ 0.026
G7U C27A A33C | ≤ 0.026
G7U C27G A33U G73C | ≤ 0.026
G7U C27U | ≤ 0.026
G7U C27U A54U C56A | ≤ 0.026
G7U C27U C77A C83U G88U | ≤ 0.026
G7U C27U G84C | ≤ 0.026
G7U C29U C68U | ≤ 0.026
G7U C34G C56G | ≤ 0.026
G7U C34U A54C C56U | ≤ 0.026

Variant | nonsense suppression
G7U C68A | ≤ 0.026
G7U C79A G85U G86U G88U | ≤ 0.026
G7U C82G G88U | ≤ 0.026
G7U G10A A23C G26U A60G G86C | ≤ 0.026
G7U G10A A62C | ≤ 0.026
G7U G10U C80U G86C | ≤ 0.026
G7U G15A U35C A54G | ≤ 0.026
G7U G18C A33G | ≤ 0.026
G7U G19C U57G A62U | ≤ 0.026
G7U G19U G28U G65A | ≤ 0.026
G7U G25A C27U C29U | ≤ 0.026
G7U G25C G67A | ≤ 0.026
G7U G25U | ≤ 0.026
G7U G26A G66A | ≤ 0.026
G7U G26C A60C | ≤ 0.026
G7U G26U C80A | ≤ 0.026
G7U G28A C34U | ≤ 0.026
G7U G32A A33C C83A A89G | ≤ 0.026
G7U G32A U58G | ≤ 0.026
G7U G32U U55A U63A | ≤ 0.026
G7U G61C | ≤ 0.026
G7U G61C C77A G78U | ≤ 0.026
G7U G65C A89C | ≤ 0.026
G7U G65C G66A | ≤ 0.026

Variant | nonsense suppression
G7U G65C G66A G78A | ≤ 0.026
G7U G66A | ≤ 0.026
G7U G84A | ≤ 0.026
G7U G84C | ≤ 0.026
G7U G85C | ≤ 0.026
G7U G86A | ≤ 0.026
G7U U8A U20G C83G | ≤ 0.026
G7U U8C | ≤ 0.026
G7U U8C A23U C82G A87G | ≤ 0.026
G7U U17A C29G U58G | ≤ 0.026
G7U U17A U20C A23G A31G A87U | ≤ 0.026
G7U U17G | ≤ 0.026
G7U U17G C27U A31G U57G | ≤ 0.026
G7U U20A | ≤ 0.026
G7U U21A | ≤ 0.026
G7U U21A C29G A54C G65C | ≤ 0.026
G7U U21A G78A C79A | ≤ 0.026
G7U U21C U22G G69A | ≤ 0.026
G7U U21G A60C G84C | ≤ 0.026
G7U U22G A24U C68A | ≤ 0.026
G7U U35C A89G | ≤ 0.026
G7U U35C G59U | ≤ 0.026
G7U U35G | ≤ 0.026
G7U U55A | ≤ 0.026

Variant | nonsense suppression
G7U U57C | ≤ 0.026
G7U U57C G65A | ≤ 0.026
G7U U57G A60U A62G | ≤ 0.026
G7U U57G U71C | ≤ 0.026
G7U U58G C80G | ≤ 0.026
G7U U63A G88U | ≤ 0.026
G7U U71A | ≤ 0.026
G7U U71G | ≤ 0.026
G7U U71G C82A G85C | ≤ 0.026
G7U U76A | ≤ 0.026
G7U U76G C81U | ≤ 0.026
U8A A9G C27A C79G G86A | ≤ 0.026
U8A A13C G67A | ≤ 0.026
U8A A13G | ≤ 0.026
U8A A14G U70A | ≤ 0.026
U8A A14U | ≤ 0.026
U8A A14U A23G A30U | ≤ 0.026
U8A A23G C27G U63C | ≤ 0.026
U8A A23G C80G G84C | ≤ 0.026
U8A A23U U58G | ≤ 0.026
U8A A24C | ≤ 0.026
U8A A24C G25U G61U C79U G85C | ≤ 0.026
U8A A24U | ≤ 0.026
